Test results reported in PubChem BioAssay (NCI).
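In this assay, cells in 96-well plates receive the compound at five concentrations for 48 hours. Endpoints are linearly interpolated between the surrounding concentrations. GI50 marks 50% less growth. At the TGI there is no net growth.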

Test system: NCI-H322M lung
Assay: NCI tumour cell line growth inhibition, 48 h

SMILES | GI50 [µM] | TGI [µM]
COc1ccc(-c2nc3ccccc3n2CC(=O)N=Nc2c(O)[nH]c3ccc(OC)cc23)cc1 | 13.3 | 26.1
Cc1ccc(C2CC(c3ccc(NC(=S)Nc4ccccc4)cc3)=NN2c2ccc(S(N)(=O)=O)cc2)cc1 (stereo unspecified) | 5.61 | 39.5
O=C(c1ccc(Cl)cc1)C1[C@H](c2ccccc2Cl)[C@@H](c2ccccc2)NC12C(=O)Nc1ccc(Cl)cc12 (stereo partly specified) | 20.7 | 58.3
